Drawing on the supplement of paper PMC9446081, this text covers relative growth for 19 compounds.

Screen size: about 39,000 compounds; about 220 (0.56%) showed activity. Some of the results follow.
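Also: static incubation at 37 °C against the wild-type strain, values averaged over two biological replicates.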

The subject of the assay is Escherichia coli K-12 BW25113. Description: relative growth (OD600 normalised to plate interquartile mean) (fraction); higher = less growth inhibition, active = 0.2 or less. As to conditions: 50 µM; LB; incubation time: overnight (16-24 h).
For the compound `O=c1c(O)c(-c2ccccc2)oc2cccc(O)c12`, the relative growth was inactive: 0.976.

For the compound `O[C@@H]1[C@@H](O)[C@H](O)OC[C@H]1O`, the relative growth was inactive: 0.985.

For the compound `C[C@@H]1CN([C@H](C)CO)C(=O)c2cccc(NS(C)(=O)=O)c2O[C@@H]1CN(C)S(=O)(=O)c1ccccc1`, the relative growth is inactive: 0.982.

Turning to `COCC(=O)N(C)C[C@H]1Oc2cc(C#CC(C)(C)O)ccc2S(=O)(=O)N([C@H](C)CO)C[C@H]1C`, the relative growth is inactive: 0.996.

Turning to `O=C(O)[C@H]1NC(=O)[C@@H]1Cc1ccccc1`, the relative growth is inactive: 1.

On to `COc1ccc(NC(=O)N(C)C[C@H]2Oc3ncc(C#CCN(C)C)cc3C(=O)N([C@H](C)CO)C[C@H]2C)cc1`, for which the relative growth is inactive: 1.

As to `COc1ccc(S(=O)(=O)Nc2cccc3c2O[C@H](CN(C)S(=O)(=O)c2cccs2)[C@H](C)CN([C@@H](C)CO)C3=O)cc1`, the relative growth was inactive: 1.05.

`Cc1noc(C)c1NC(=O)N(C)C[C@@H]1Oc2ccc(NC(=O)CCCN(C)C)cc2C(=O)N([C@@H](C)CO)C[C@@H]1C`: the relative growth was inactive: 1.01.

For the compound `C[C@H](CO)N1C[C@H](C)[C@H](CN(C)C(=O)Nc2ccccc2)Oc2c(NS(C)(=O)=O)cccc2C1=O`, the relative growth is inactive: 0.989.

Take `CCS(=O)(=O)NCC[C@@H]1CC[C@@H](NS(=O)(=O)c2ccccc2C)[C@H](CO)O1`: the relative growth was inactive: 0.992.

On to `Cc1noc(C)c1NC(=O)Nc1ccc2c(c1)C(=O)N([C@@H](C)CO)C[C@H](C)[C@@H](CN(C)Cc1ccccc1)OCCCC[C@@H](C)O2`, for which the relative growth is inactive: 0.985.

With `Cc1ccnc(NS(=O)(=O)c2ccc(N)cc2)n1`, the relative growth is inactive: 0.826.

Take `C[C@H](CO)N1C[C@H](C)[C@@H](CN(C)C(=O)NC2CCCCC2)Oc2ccc(NC(=O)Cn3cnnn3)cc2CC1=O`: the relative growth is inactive: 1.01.

For `COc1ccc(S(=O)(=O)Nc2ccc3c(c2)[C@H]2C[C@H](CC(=O)NCC4CC4)O[C@H](CO)[C@H]2O3)cc1`, the relative growth was inactive: 0.995.

Regarding `C[C@@H]1CN([C@@H](C)CO)C(=O)Cc2cc(NS(=O)(=O)c3ccc(Cl)cc3)ccc2O[C@@H]1CN(C)Cc1ccc(-c2ccccc2)cc1`, the relative growth was inactive: 1.

Turning to `C[C@H]1CN([C@@H](C)CO)C(=O)Cc2cc(NC(=O)Cc3cn(C)c4ccccc34)ccc2O[C@@H]1CN(C)CC1CCCCC1`, the relative growth was inactive: 1.03.

With `C[C@@H]1CCn2cc(nn2)COC[C@H](Cc2ccccc2)NC(=O)[C@H](C)CCn2cc(nn2)COC[C@H](Cc2ccccc2)NC1=O`, the relative growth is inactive: 0.986.

`CN1CCN([C@@H]2CCN[C@H]2Cc2cnn(C)c2)CC1`: the relative growth is inactive: 1.

With `COc1cc(OC)cc(-c2ccc(-c3ccc([C@H]4CC(=O)C[C@@H](c5ccccc5)C45C(=O)OC(C)(C)OC5=O)cc3)cc2OC)c1`, the relative growth is inactive: 0.996.
